In the supplement of paper PMC11417369:
The list shows a part of the results.

Each sequence was assayed on PfAP2-HC AP2 domain (GST-tagged) (assay: gcPBM binding intensity (ln(normalized median fluorescence intensity)); higher = stronger DNA binding).
Method in brief: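 Binding of GST-tagged P. falciparum DNA-binding domains, expressed in E. coli and used at about 25 μg on average, was carried out for 1 h in 1× PBS containing 1% milk, 0.2 mg/ml BSA, 0.5% salmon testes DNA and 0.03% Triton X-100. The target was an Agilent 4 × 180k array of primer-extended double-stranded 36-bp intergenic genomic probes plus negative controls, read with Alexa488 anti-GST antibody at 488 nm. Binding intensity is the highest Masliner-normalised natural-log median intensity across replicate spots of either probe orientation.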
“TTTTATTATTAATTTCTTTTTTCTCATCACTTTCAA [XGTACX_negctrl_site117]” was tested, and the “gcPBM binding intensity (ln)” value was 9.49. In the case of “ATATATATAAAATATACACACATACTGTTCATTTAA [CACACA_site6149]”, the “gcPBM binding intensity (ln)” value is reported as 9.83. With “TAATTTATGAGTAATACACACACTTGTGGATATATT [CACACA_site3790]” the “gcPBM binding intensity (ln)” value was 9.8. For “ATATAATGTTGTAATAGTACTTTTTTCATATAAATA [XGTACX_site2666]”, the “gcPBM binding intensity (ln)” value was 9.45. In the case of “AAAGAATACAAAATTGCACACATATTGTGAAAATGT [CACACA_site9327]”, the “gcPBM binding intensity (ln)” value is reported as 10.2. With “TATTAACACAATAGCGCACACTTTTAATATTTTATA [CACACA_site1617]” the “gcPBM binding intensity (ln)” value was 9.8. For “CTTAAATTGAAATGTTGTACAAAGTAAAAACAATGA [XGTACX_site2123]”, the “gcPBM binding intensity (ln)” value was 9.79. In the case of “CATATTTTATTATATACATGCAATTTTAATATATAT [TGCATGCA_site544]”, the “gcPBM binding intensity (ln)” value is reported as 9.61. For “TATAATTTAACGACATGTACATATAAAAAAATATTT [XGTACX_site2395]”, the “gcPBM binding intensity (ln)” value was 9.75. For “ATACACATTCTTCCGACATAATAAGAAAAAGAAAAA [CACACA_negctrl_site9]”, the “gcPBM binding intensity (ln)” value was 9.47. With “AAAATGTATTCTCTCATGCACACTTTCTTTAAGGGA [CACACA_site2196]” the “gcPBM binding intensity (ln)” value was 9.55. “TTATTTATATTTTTTTGTACACATATTGTATACATA [XGTACX_site1178]” was tested, and the “gcPBM binding intensity (ln)” value was 9.78. For “TGTAGATTTTGTAACACACACATATAAATACCTATA [CACACA_site7183]”, the “gcPBM binding intensity (ln)” value was 9.94. In the case of “TATAAACCTTTTTGCACGCACACAAAAAAAAAATAA [CACACA_site168]”, the “gcPBM binding intensity (ln)” value is reported as 9.88. “AAACATATATACATATGTACATATATACATATATGT [XGTACX_site5779]” was tested, and the “gcPBM binding intensity (ln)” value was 9.66. With “TTCGGAAAAATTAAAGCACACAAAAAAAAATAAAAA [CACACA_site8296]” the “gcPBM binding intensity (ln)” value was 9.84. With “GATTAACAACATATTAGTACATATATTATATATATA [XGTACX_site7646]” the “gcPBM binding intensity (ln)” value was 9.61. GACTATAATGTTTTGGTGCGTCATGTTATGGTCATC was tested, and the “gcPBM binding intensity (ln)” value was 9.69. In the case of “TATTTATATATATGATGTACATAAGGTGTAATGTTA [XGTACX_site5591]”, the “gcPBM binding intensity (ln)” value is reported as 9.76. “TATTTACATACAAAATGTACAAAAATATATTTTTTT [XGTACX_site888]” was tested, and the “gcPBM binding intensity (ln)” value was 9.65. In the case of “TACATGAATATTTATACATGCACACTAAAATAAAGA [TGCATGCA_site611]”, the “gcPBM binding intensity (ln)” value is reported as 9.75. In the case of “ATATATATTTAATGTTGTACATAAAAAATATATAAA [XGTACX_site7774]”, the “gcPBM binding intensity (ln)” value is reported as 9.59. With “ATCTCTTATATATTCACACACATATATATAATTATA [CACACA_site1502]” the “gcPBM binding intensity (ln)” value was 10. “AAATATAATAACGAACGTACTTATTATAATTTGTAA [XGTACX_site2342]” was tested, and the “gcPBM binding intensity (ln)” value was 9.53. “AGAAAAAAAAAAAGTACACACATATAACATATAGAT [CACACA_site7410]” was tested, and the “gcPBM binding intensity (ln)” value was 10.4.
